Whole data set: some 110,000 compounds, median “z-score” near -0.1, cut for the highest 2% near 2. The list shows a part of the results. Active and inactive are the calls of the source.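 The calls were made as follows: active = z-score in the third read window above 3 or below -3; inactive = the rest.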

This assay deals with Metabotropic glutamate receptor 8 (Rattus norvegicus) (UniProt P70579). Kind of assay: mGluR8 Gi/Go-coupled signaling modulation – cell-based, rat, thallium flux, HTS, primary screen (AID 488969). To be noted: HEK293 rat mGluR8, GIRK (G protein-gated inwardly rectifying potassium channel) thallium flux, FluoZin2; at 10 µM; stronger effect = higher value; submaximal glutamate (EC20) added with thallium.
Chain of UniProt P70579 (P70579 whole entry, looked up): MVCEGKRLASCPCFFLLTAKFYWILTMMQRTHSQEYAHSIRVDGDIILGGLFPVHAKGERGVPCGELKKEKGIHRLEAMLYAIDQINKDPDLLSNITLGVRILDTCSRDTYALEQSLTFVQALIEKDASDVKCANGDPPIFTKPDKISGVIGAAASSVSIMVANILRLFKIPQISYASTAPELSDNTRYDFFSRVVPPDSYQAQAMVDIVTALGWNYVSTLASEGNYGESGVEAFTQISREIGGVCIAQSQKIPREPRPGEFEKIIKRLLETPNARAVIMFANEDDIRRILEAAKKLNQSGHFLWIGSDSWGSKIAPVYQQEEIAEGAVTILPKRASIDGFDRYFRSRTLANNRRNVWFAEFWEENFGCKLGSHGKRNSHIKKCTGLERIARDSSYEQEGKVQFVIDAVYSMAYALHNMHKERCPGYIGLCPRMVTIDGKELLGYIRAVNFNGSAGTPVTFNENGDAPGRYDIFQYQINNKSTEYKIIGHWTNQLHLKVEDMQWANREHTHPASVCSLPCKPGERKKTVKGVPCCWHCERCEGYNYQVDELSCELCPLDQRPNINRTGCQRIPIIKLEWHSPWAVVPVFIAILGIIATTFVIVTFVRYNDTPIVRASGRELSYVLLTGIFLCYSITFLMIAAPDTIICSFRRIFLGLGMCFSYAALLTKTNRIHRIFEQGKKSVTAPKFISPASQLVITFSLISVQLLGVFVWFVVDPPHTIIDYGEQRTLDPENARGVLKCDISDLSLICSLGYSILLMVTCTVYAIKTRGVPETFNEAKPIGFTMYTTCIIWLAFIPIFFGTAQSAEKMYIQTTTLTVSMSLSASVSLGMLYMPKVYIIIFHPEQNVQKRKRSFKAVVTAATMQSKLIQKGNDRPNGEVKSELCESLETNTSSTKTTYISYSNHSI
For the compound `Cn1c(=O)c2c(ncn2CC(=O)Nc2ccccc2Sc2ccccc2)n(C)c1=O`, the z-score is -0.019.
As for `COc1ccc(/C=C/C(=O)N2CCN(S(=O)(=O)/C=C/c3ccccc3)CC2)cc1OC`, the z-score is active: -3.39.
`Cc1cc(=O)n2[nH]c(C)c(-c3ccccc3)c2n1` returned a z-score of -0.675.
Compound `CC(C)OCCCNc1ncnc2c1[nH]c1ccccc12` returned a z-score of -0.338.
`CC(C)Cn1c(-c2ccc(C#N)cc2)nc2c1c(=O)[nH]c(=O)n2CC(C)C` yielded a z-score of 0.0242.
The figure for `CCOC(=O)CSc1nc2cc3c(cc2cc1C#N)OCO3` is 0.0956; for `Nc1ccc(-c2nnc(-c3ccc(-c4ccccc4)cc3)o2)cc1` it is -0.17; for `CC1(C)CC(=O)C(C=NCCN2CCN(C(=S)Nc3cccc(Cl)c3)CC2)=C(O)C1` it is -0.0668.
For the compound `O=C(Nc1cnc2ccccc2c1)c1ccncc1`, the z-score is -0.0962.
The compound `O=C1CC(N2CCN(C/C=C/c3ccccc3)CC2)C(=O)N1Cc1cccs1` (stereo not given) had a z-score of 0.565.
The compound `CC(C)COP(=O)(OCC(C)C)C(O)c1ccc(F)cc1` (stereo not given) had a z-score of 0.263.
In turn, `COc1ccc2[nH]c(C)c(CCN(Cc3cccs3)C(=S)Nc3ccccc3OC)c2c1` returned a z-score of -0.0821.
Then `O=C(c1ccc2snnc2c1)N1CCN(c2ccccn2)CC1`, with -0.329; and `COC(=O)c1cn(NC(=O)C2CCC(C)CC2)c(=O)c2ccccc12` (stereo not given), with -0.0485; and `CC(OC(=O)c1cc(-c2cccnc2)nc2ccccc12)C(=O)Nc1ccc2ccccc2c1` (stereo not given), with -0.277.
`COc1cc(OC)cc(-c2nnc(SCC(=O)N3CCCC3)o2)c1` showed a z-score of -0.103.
`CC(CNS(=O)(=O)c1cc(Cl)ccc1Cl)CN(C)C` (stereo not given) showed a z-score of 0.474.
`COCCN(C(=S)Nc1ccccc1OC)C1CCN(C(C)=O)CC1` had a z-score of -0.367.
As for `O=C(CN1CCN(c2ccccc2)CC1)N1N=CCC1c1ccccc1` (stereo not given), the z-score stood at 0.109.
`COc1ccc(Br)cc1CN(C)CC(=O)Nc1c(Cl)cccc1Cl` yielded a z-score of -0.245.
Compound `O=C(Nc1cccc2c1CCCC2)c1ccc(Br)o1` gave a z-score of -0.941.
Then `Cc1cc(C(F)(F)F)c2c(=O)[nH]c(=O)n(Cc3ccccc3)c2n1`, with active: -3.29; and `CC(=O)N(c1ccccc1)c1ccc([N+](=O)[O-])cc1[N+](=O)[O-]`, with -0.168; and `CC(=O)Nc1cccc(N2C(=O)CCC2=O)c1`, with 0.49.
Turning to `COc1cc(OC)c(C2N(c3ccc(Cl)cc3)C(=O)C3CCCN32)cc1OC` (stereo not given), the z-score turned out to be 0.129.
The figure for `O=C(O)c1ccccc1C(=O)Nc1ccccn1` is 0.194; for `Cc1ccc(N=Nc2c(N)nn(-c3ccccc3)c2N)cc1` it is -0.169.
Then `Cc1ccc(N2C(=O)C3NN=C(C(=O)OCc4ccccc4)C3C2=O)c(C)c1` (stereo not given), with -0.193.
Consider `COc1ccc(S(=O)(=O)Cc2ccc(C(=O)N3CCc4ccccc4C3)o2)cc1`, for which the z-score was -0.356.
For `CCOc1ccccc1N1CCN(C(=O)C(F)(F)F)CC1`, the z-score was -0.337.
Take `CC[n+]1c(-c2ccc(C)cc2)csc1Nc1c(C)n(C)n(-c2ccccc2)c1=O`: the z-score is -0.519.
`O=C(c1ccc(S(=O)(=O)N2CCOCC2)cc1)N1CCN(c2ccccc2F)CC1` had a z-score of -0.395.
Compound `Cc1ccc(OCC(=O)NCc2cccs2)cc1` had a z-score of 0.0592.
Compound `O=C(CN1CCC(n2nnc3cc(F)ccc32)CC1)Nc1ccc2c(c1)CCC2` registered a z-score of -0.25.
For `CC(C)Cn1c(NCCO)nc2ccccc21`, the z-score is -0.517.
For `CCOC(=O)C1=C(C)NC(C)=C(C(=O)OCC)C1C(=O)OCC(=O)c1ccc2c(c1)OCCO2`, the z-score is -0.495.
`O=C(N/N=C/c1ccc2ccccc2c1)c1ccc(COc2ccc3c(c2)CCC3)o1` returned a z-score of -0.0437.
The figure for `CC(C)C(=O)NC(=S)Nc1ccc(S(=O)(=O)N2CCCC2)cc1` is -0.314.
On to `Cc1ccccc1C(=O)NN1CCOCC1`, for which the z-score is -0.107.
`CCn1c(SCC(=O)N2CCN(c3ccc(F)cc3)CC2)nnc1-c1ccncc1` gave a z-score of 0.119.
Compound `Cc1noc(C)c1S(=O)(=O)NCCCN1CCN(Cc2ccccc2)CC1` showed a z-score of -0.225.
The compound `Cc1ccc(OCC(=O)NC2CCS(=O)(=O)C2)cc1` (stereo not given) returned a z-score of -0.0588.
`CCO/C(C)=C1\C(=O)N(CC)c2ccccc21` came in with a z-score of -0.822.
Consider `COc1ccc(N2CC(C(=O)Nc3ccc(N4CCOCC4)cc3)CC2=O)cc1` (stereo not given), for which the z-score came to 0.399.
For `O=C(CCN1C(=O)c2ccccc2C1=O)N1CCN(Cc2ccccc2)CC1`, the z-score is -0.0174.
As to `S=C(NCC1COc2ccccc2O1)Nc1ccc(Br)cc1` (stereo not given), the z-score was -0.41.
Then `CC/C(=N\OC(=O)c1ccc(OC(C)C)cc1)c1ccc(C)cc1`, with 0.271; and `O=C(C(Cc1ccccc1)n1cccc1)N1CCN(c2ccccc2)CC1` (stereo not given), with -0.211; and `COc1ccc(-c2nnn(CCc3nn[nH]n3)n2)cc1`, with -0.103.
Compound `Cc1cccc(N2C(=O)CC(Sc3nnc(C)s3)C2=O)c1` (stereo not given) gave a z-score of -0.108.
The figure for `O=C1OC(Nc2ccc3ncccc3c2)c2ccccc21` (stereo not given) is -0.219; for `COc1cc(C(=O)OCCNC(=O)c2ccncc2)cc(OC)c1OC` it is -0.237; for `CCCCCCCCOC(=O)c1ccc(N)cc1` it is -0.528.
Take `CCN(CC)CCCNC(=O)Cn1ncc2c(=O)oc3ccc(C)cc3c21`: the z-score was -0.158.
Compound `CN(CC(=O)NCCc1ccccc1)S(=O)(=O)c1cccs1` yielded a z-score of 0.69.
For `CC(=O)c1ccc(-n2nnnc2SCC(=O)Nc2cccc(NC(=O)c3ccco3)c2)cc1`, the z-score is -0.263.
Compound `COc1ccc(-n2nc3c(c2NC(=O)C2CC2)CS(=O)C3)cc1` (stereo not given) returned a z-score of 0.0323.
For the compound `CCOC(=O)C(NC(=O)NC1CCCCC1)(c1ccccc1)C(F)(F)F` (stereo not given), the z-score is -0.42.
Then `Cc1ccc(S(=O)(=O)Nc2ccc(S(=O)(=O)NC(C)(C)C)cc2)cc1`, with -0.0722.
Take `CCOc1ccccc1N1CCN(C(=S)NCc2ccco2)CC1`: the z-score was -0.442.
`CCCOP(=O)(c1ccc(N(C)C)cc1)C(Nc1ccccc1)c1ccc(N(C)C)cc1` (stereo not given) came in with a z-score of 0.25.
In the case of `COc1cccc(CN2CCNC(=O)C2CC(=O)O)c1OC` (stereo not given), the z-score was 0.165.
In turn, `N#Cc1cn(-c2ccccc2)nc1-c1ccco1` yielded a z-score of -0.0798.
The compound `CC(C)CCn1cnc2c(sc3nc4c(cc32)CSC(C)(C)C4)c1=O` displayed a z-score of -0.32.
Consider `C[C@H](N)c1nnc(SCC(=O)c2ccc(Cl)cc2)o1`, for which the z-score stood at 0.0936.
Then `CN1/C(=C/C(=O)c2nc(S(C)(=O)=O)ncc2Cl)C(C)(C)c2ccccc21`, with -0.00936.
The figure for `CC(=O)C1=C(c2ccccc2)OC(N)=C(C#N)C1c1ccc(O)cc1` (stereo not given) is -0.487; for `O=C(Nc1ccccc1)Nc1ccc(C(=O)N2CCOCC2)cc1` it is -0.0267; for `COc1ccc(OCC(=O)N/N=C/c2ccc(O[C@@H]3O[C@H](CO)[C@@H](O)[C@H](O)[C@H]3O)cc2)cc1` it is 0.158.
Then `Cc1nnc(SCCn2c(N3CCCC(C)C3)nc3c2c(=O)n(C)c(=O)n3C)s1` (stereo not given), with -0.358.

Values taken from PubChem BioAssay AID488969 (Vanderbilt High Throughput Screening Facility, 2010).
